Our source for the growth inhibition call values is the antibiotic and cytotoxicity screens of Wong et al. (2023).

Some of the results follow.

The test concerns S. aureus RN4220. The experiment in a line: growth inhibition call (relative growth <= 0.2). As to conditions: 50 µM.
Regarding `COc1cccc(S(=O)(=O)N(C)C[C@H]2Oc3cc(Br)ccc3S(=O)(=O)N([C@@H](C)CO)C[C@H]2C)c1`, the growth inhibition call was “inactive”. In the case of `COc1ccc(NC(=O)Nc2ccc3c(c2)C(=O)N([C@H](C)CO)C[C@H](C)[C@H](CN(C)S(=O)(=O)c2c(C)noc2C)OCCCC[C@@H](C)O3)cc1`, the growth inhibition call was “inactive”.

Turning to `C[C@@H]1CN([C@@H](C)CO)C(=O)c2c(c3ccccc3n2C)-c2ccccc2CO[C@H]1CN(C)C(=O)Nc1ccc(-c2ccccc2)cc1`, the growth inhibition call is “inactive”. In the case of `Cc1ccc(S(=O)(=O)N(C)C[C@H]2OCCCC[C@@H](C)Oc3ccc(NC(=O)NC4CCCCC4)cc3C(=O)N([C@H](C)CO)C[C@@H]2C)cc1`, the growth inhibition call was “inactive”.

For the molecule `COc1ccccc1CNC(=O)C[C@@H]1C[C@@H]2c3cc(NC(=O)c4ccc5c(c4)OCO5)ccc3O[C@@H]2[C@H](CO)O1`, the growth inhibition call is “inactive”.

For `COc1cccc(S(=O)(=O)N(C)C[C@H]2OCc3cnnn3CCCC(=O)N([C@H](C)CO)C[C@H]2C)c1`, the growth inhibition call is “inactive”. For `C[C@@H]1CN([C@H](C)CO)C(=O)c2cccc(NC(=O)NC3CCCCC3)c2O[C@H]1CN(C)Cc1ccc(-c2ccccc2)cc1`, the growth inhibition call was “inactive”. For the molecule `Cc1sc2ncnc(N3CCC[C@@H](Cn4cc(C(C)(C)N)nn4)C3)c2c1C`, the growth inhibition call was “inactive”. For the molecule `Cc1noc(C)c1S(=O)(=O)Nc1ccc2c(c1)CC(=O)N([C@@H](C)CO)C[C@@H](C)[C@@H](CN(C)CC1CC1)O2`, the growth inhibition call is “inactive”. Turning to `COc1ccc(S(=O)(=O)N2C[C@H](O)COC[C@@H]3O[C@H](CC(=O)N[C@H]4CCN(Cc5ccccc5)C4)CC[C@H]32)cc1`, the growth inhibition call is “inactive”. In the case of `COc1ccc(S(=O)(=O)N(C)C[C@@H]2Oc3c(NS(=O)(=O)c4cn(C)cn4)cccc3C(=O)N([C@@H](C)CO)C[C@@H]2C)cc1`, the growth inhibition call is “inactive”. In the case of `COc1ccc(CN(C)C[C@@H]2OCCCC[C@H](C)Oc3ccc(NS(=O)(=O)c4ccc(Cl)cc4)cc3C(=O)N([C@@H](C)CO)C[C@@H]2C)cc1`, the growth inhibition call is “inactive”. Then `C[C@H](CO)N1C[C@H](C)[C@@H](CN(C)S(=O)(=O)c2ccccc2)OCCCC[C@H](C)Oc2ccc(NC(=O)Nc3ccccc3)cc2C1=O`, with “inactive”; and `Cc1ccc(S(=O)(=O)N(C)C[C@H]2Oc3ccc(NS(=O)(=O)c4c(C)noc4C)cc3C(=O)N([C@H](C)CO)C[C@@H]2C)cc1`, with “inactive”; and `Cc1ccc(S(=O)(=O)Nc2ccc3c(c2)C(=O)N([C@@H](C)CO)C[C@@H](C)[C@H](CN(C)Cc2ccc(-c4ccccc4)cc2)O3)cc1`, with “inactive”. Then `COCC#Cc1ccc2c(c1)O[C@@H](CN(C)C(=O)COC)[C@H](C)CN([C@H](C)CO)S2(=O)=O`, with “inactive”; and `Cc1ccc(S(=O)(=O)N(C)C[C@@H]2Oc3ccc(NC(=O)C4CC4)cc3C(=O)N([C@@H](C)CO)C[C@H]2C)cc1`, with “inactive”.

In the case of `Cc1c(-c2ccccc2)n(C[C@@H](O)CN)c2ccccc12`, the growth inhibition call was “inactive”. Take `O=c1ncccn1[C@H]1O[C@H](CO)[C@@H](O)[C@@H]1O`: the growth inhibition call is “inactive”. With `C[C@@H]1CCCCO[C@H](CN(C)S(=O)(=O)c2ccc(Cl)cc2)[C@@H](C)CN([C@H](C)CO)C(=O)c2cc(NC(=O)CCC(F)(F)F)ccc2O1`, the growth inhibition call was “inactive”. In the case of `c1ccc(-c2nc(-c3cccs3)[nH]c2-c2ccccc2)cc1`, the growth inhibition call is “inactive”.
